# The whole screen tested about 310,000 compounds, of which about 18,000 (5.8%) were called active. The shares of active, inactive and inconclusive entries below differ from those in the screen. Calls follow the shape of the dose curve; as a rule, active = well fitted inhibition curve with a large enough effect; inconclusive = small, poorly fitted or top-dose-only effect, or another doubt; inactive = no such curve, though single readings can be large or run the other way. No potency is given beside an inconclusive call; the fits are too rough.
# Assay: Primary qHTS for delayed death inhibitors of the malarial parasite plastid, 48 hour incubation
# Settings: P. falciparum luciferase growth in erythrocytes; series mostly up to 28.7 µM; activity change, negative = inhibition: at the top concentration
# Procedure, shortened: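 Parasite viability was followed by luminescence of a genomically integrated firefly luciferase. Cultures held 0.1% parasitemia at 2% hematocrit (final), incubated under 5% CO2 at 37 C.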
# % is scaled to controls: 0 for no effect and ±100 for the full control effect; potency is read from the fitted curve at half-maximal effect; tags tell the direction and shape of the fitted curve.
Compound,Potency,"activity change, negative = inhibition"
Cn1nc(C(=O)Nc2cccc(S(=O)(=O)N3CCCCC3)c2)c2ccccc2c1=O,"inconclusive [inhibitor, single point]",
COc1ccc(/C=C/C(=O)C2(O)CCCCC2)cc1,,inactive: -0.5%
CSc1ncccc1C(=O)Nc1ccc(F)c(F)c1F,,inactive: 1.45%
Cc1ccc(NC(=O)N2CCCCC2)cc1NC(=O)N1CCCCC1,"inconclusive [inhibitor, full curve, poor fit]",
Nc1ccc(OCCc2ccccc2)cc1,"inconclusive [inhibitor, single point]",
COc1ccc(NC(=O)c2csc(Cc3ccc(Cl)cc3)n2)cc1,,inactive: 3.17%
CCC(=O)Nc1nonc1-c1nc2ccccc2n1Cc1cccc2ccccc12,"inconclusive [inhibitor, single point]",
CN(Cc1ccccc1)C(=O)CN1C(=O)COc2ccc(S(=O)(=O)N3CCCC3)cc21,"inconclusive [inhibitor, partial curve, poor fit]",
CC1CN(S(=O)(=O)c2ccc(C(=O)Nc3ccc(S(=O)(=O)Nc4nccs4)cc3)cc2)CC(C)O1 (centres undefined),"inconclusive [inhibitor, single point]",
Cc1ccc(NC(=O)CSc2nnnn2C2CC2)cc1S(=O)(=O)N1CCOCC1,"inconclusive [inhibitor, single point]",
N#Cc1c(-c2ccccc2)cc(C2CC2)nc1SCC(=O)c1cccs1,"inconclusive [inhibitor, single point]",
O=c1c2cc(N3CCOCC3)ccc2[nH]c(=S)n1CCN1CCCC1,"inconclusive [inhibitor, single point]",
COc1ccc(C2NC(=O)CCC2[N+](=O)[O-])c(OC)c1OC (centres undefined),,inactive: 13.4%
OC(c1ccccn1)C1CCN(Cc2nc(C(c3ccccc3)c3ccccc3)no2)CC1 (centres undefined),"inconclusive [inhibitor, partial curve]",
CC(=O)[C@H]1CC[C@H]2[C@@H]3C[C@H](C)C4=CC(=O)CC[C@]4(C)[C@H]3[C@@H](O)C[C@]12C,"inconclusive [inhibitor, partial curve, poor fit]",
CC(=O)Nc1cccc2c1C(=O)N(c1ccccc1OC(C)=O)C2=O,,inactive: 0%
Cc1ccc(/C=N/n2c(C)cc(C)c(C#N)c2=O)cc1,active: 14.7 µM,
CC1CCCC(C)N1NC(=S)Nc1ccc(OC(F)F)cc1 (centres undefined),"inconclusive [inhibitor, single point]",
O=C(CCS(=O)(=O)c1ccc(Br)cc1)Nc1ccccc1Cl,,inactive: 3.67%

# From PubChem BioAssay AID504832 (National Center for Advancing Translational Sciences (NCATS), 2011)
